Test results from patent US20140004122A1, “METHODS FOR TREATING OR PREVENTING CHOLESTEROL RELATED DISORDERS” (AMGEN INC., priority 2011, published 2014).

Key:
[1] = Pharmacokinetics in mice expressing human PCSK9 by AAV; assay type: in vivo, mouse; settings: intravenous dose of 30 mg/kg
Experimental: Serum concentrations of antibody were determined using a sandwich ELISA assay. Polyclonal goat anti-human Fc IgG and an HRP-labeled goat anti-human IgG Fcγ polyclonal reagent (both from Jackson ImmunoResearch Laboratories Inc, West Grove, Pa.) were used as the capture and the detection antibody, respectively. A 3,3′,5,5′ tetramethylbenzidine (TMB) substrate solution reacted with peroxide, and in the presence of horse radish peroxidase (HRP), created a colorimetric signal that was proportional to the amount of the respective anti-PCSK9 antibody bound by the capture reagent. The intensity of the color (optical density, OD) was measured at 450 nm minus 650 nm using a microplate reader (Spectra Max Plus 384). Data was analyzed using Watson version 7.0.0.01 (Thermo Scientific, Waltham, Mass.) data reduction package with a Logistic (auto-estimate) regression of separately prepared standard curves. The lower limit of quantification (LLOQ) for the assay was ng/mL. 34.4.
Non-compartmental analysis (NCA) was performed on serum concentrations using the pre-determined nominal time points for each subject using WinNonlin Enterprise, version 5.1.1 (Pharsight, St. Louis, Mo.). […] NCA parameters reported include: apparent half-life (t1/2), area under the serum concentration-time curve from time zero to the last measured concentration (AUC0-t), and apparent serum clearance (CL0-t). […]

[2] = molecular target: PCSK9 (Homo sapiens, UniProt Q8NBP7); assay: 11F1 binding specificity competition assay; set-up: purchased R&D Systems; settings: 0.4 μg/mL 11F1; 0 to 20 μg/mL competitor
Experimental: Biotinylated PCSK9, diluted in buffer A (25 mM Tris, 150 mM NaCl, 0.1% BSA, 0.05% tween, pH 7.5) was bound to neutravidin coated 96 well plates at a concentration of 0.2 μg/mL, for one hour incubation at room temperature. Separately, 0.4 μg/mL of 11F1 was incubated for one hour at room temperature with various concentrations (ranging from 0 to 20 μg/mL) of either PCSK1, PCSK2, PCSK7, PCSK9 or furin (R&D Systems, Minneapolis, Minn.) (diluted in buffer A w/o tween). Furin inhibitor, at 4.5 μg/mL, was included with all furin containing reactions. The PCSK9 coated streptavidin plate was washed with buffer A and the antibody/proprotein convertase mixture was added to the plate and incubated at room temperature for one hour. After washing, bound antibody was detected by incubation with goat-α-human Fc-HRP (160 ng/mL, diluted in buffer A) (Jackson Laboratories, Bar Harbor, Me.) followed by TMB substrate. The reaction was stopped with 1 N HCl and the absorbance was read at a wavelength of 450 nm on a Spectramax Plus 384 spectrophotometer (Molecular Devices Inc., Sunnyvale, Calif.).
This assay relied on the ability of proprotein convertase in solution to compete for the binding of 11F1 to plate-captured PCSK9. […] All results were expressed as the mean OD450 value±standard deviation versus concentration of the proprotein convertase. […]

[3] = Pharmacokinetics in cynomolgus monkeys; assay type: in vivo, cynomolgus monkey; settings: 0.5 mg/kg single SC
Experimental: Antibody concentrations in serum were determined using an enzyme-linked immunosorbent assay (ELISA) with an assay range of 34.4 to 3000 ng/mL (34.4 ng/mL being the lower limit of quantitation [LLOQ]).
Non-compartmental analysis (NCA) was performed on the serum concentrations using the pre-determined nominal time points for each subject using Watson® LIMS, version 7.0.0.01 (Thermo Scientific, Waltham, Mass.). Data points for estimating the terminal elimination rate constants and half-lives were chosen by visual inspection of the concentration-time profile and best linear fit (typically from 360 h until the antibody concentrations dropped below the lower limit of quantitation).
NCA parameters reported include: terminal half-life (t1/2,z), the maximum serum concentration (Cmax), area under the serum concentration-time curve from time zero to infinity (AUC0-inf), and apparent serum clearance (CL/F). AUC0-inf was calculated using the linear log-linear trapezoidal method. All parameters were all reported to three significant figures, except for half-life which was reported to two significant figures.

Sequence of PCSK9 (Q8NBP7 153-692): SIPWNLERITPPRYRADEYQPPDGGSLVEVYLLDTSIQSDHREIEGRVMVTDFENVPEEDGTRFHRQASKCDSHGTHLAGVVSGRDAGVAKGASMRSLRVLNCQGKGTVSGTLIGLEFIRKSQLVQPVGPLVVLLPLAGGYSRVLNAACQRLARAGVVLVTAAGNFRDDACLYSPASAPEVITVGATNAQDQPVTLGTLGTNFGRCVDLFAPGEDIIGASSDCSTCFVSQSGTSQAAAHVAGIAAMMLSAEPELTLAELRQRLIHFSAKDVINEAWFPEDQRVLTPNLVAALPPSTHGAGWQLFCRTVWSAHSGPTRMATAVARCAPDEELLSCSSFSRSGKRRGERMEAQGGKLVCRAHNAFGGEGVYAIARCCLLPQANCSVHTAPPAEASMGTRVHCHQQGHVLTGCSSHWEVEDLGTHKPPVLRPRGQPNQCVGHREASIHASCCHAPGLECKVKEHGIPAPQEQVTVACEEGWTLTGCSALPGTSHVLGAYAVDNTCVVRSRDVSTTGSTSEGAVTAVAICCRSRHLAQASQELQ

B1: 11F1: anti-PCSK9 antibody; light/heavy variable region SEQ ID NO 465/463 (antibody, listed as Homo sapiens, V domains shown)
VH: EVQLVESGGGLVQPGGSLRLSCAASGFTFSNYWMSWVRQAPGKGLEWVASIKQDGSEKYYVDSVKGRFAISRDNAKNSLFLQMNSLRAEDTAVYYCARDLVLMVYDIDYYYYGMDVWGQGTTVTVSS
VL: [about 100 residues not spelt out]YCMQTLQTPLTFGGGTKVEIK
pharmacokinetic behavior (AUC0-t, CL0-t, apparent half-lives) [1]: very similar pharmacokinetic behavior | effect of pre-incubation with PCSK9 in solution on 11F1 binding to plate-captured PCSK9 (OD450) [2]: dose dependently and robustly reduced the amount of 11F1 binding to plate-captured PCSK9 | CL/F as percent of 21B12 CL/F [3]: approximately 15% | half-life [3]: approximately 200 h
